Results as given in PubChem BioAssay AID588855 (National Center for Advancing Translational Sciences (NCATS), 2011).
In all, about 410,000 compounds went through this assay and about 5,000 (1.2%) were called active. Inconclusive means that the source gave no clear call. Such entries were picked first, then a sample of the others. Calls follow the shape of the dose curve; as a rule, active = well fitted inhibition curve with a large enough effect; inconclusive = small, poorly fitted or top-dose-only effect; inactive = no such curve, though single readings can be large or run the other way. Potencies of inconclusive entries are doubtful fits and often do not repeat.
Potency is read from the fitted curve at half-maximal effect; tags tell the direction and shape of the fitted curve.

Assay: qHTS for Inhibitors of TGF-b; also: nearly all actives have a fitted effect of over 65% in size
Settings: HepG2 CAGA-GFP TGF-b/SMAD3 reporter, GFP fluorescence, 18 h, TGF-beta stimulated, 500 pg/mL final; series mostly up to 46.1 µM
How it was run: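 Per well, imaged GFP fluorescence of HEPG2 CAGA-GFP cells gives the signal; cells get compound, then TGF-beta (500 pg/mL final), 18 h at 37 degrees C; %Activity versus -TGF-beta and +DMSO controls.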
With CCC(CO)Nc1ccn2nc(-c3cc(OC)c(OC)c(OC)c3)cc2n1 (stereo not drawn) the Potency was “inactive”. With Cc1ccc(C)c(NC(=S)N=Nc2c(O)n(C)c3ccc(S(=O)(=O)N4CCOCC4)cc23)c1 the Potency was inconclusive: 3.16 µM [inhibitor, full curve, poor fit]. For CCOC(=O)c1c(C)oc2c1c(/C=N/c1ccccn1)c(O)c1ccccc12, the Potency was “inactive”. In the case of Cc1ccc(C)c(N2CCN(C(=O)C3CCN(c4nnc(N5CCCC5=O)s4)CC3)CC2)c1, the Potency is reported as inconclusive: 0.1 µM [inhibitor, full curve, poor fit]. With CC(CCc1ccccc1)NC(=O)CCNS(=O)(=O)c1ccccc1C(F)(F)F (stereo not drawn) the Potency was “inactive”. For COc1cccc(C(=O)NCCc2csc(-c3cccc(F)c3)n2)c1OC, the Potency was inconclusive: 17.8 µM [inhibitor, partial curve, poor fit]. In the case of Cc1ncc(C(O)c2ccccc2)n1Cc1ccccc1 (stereo not drawn), the Potency is reported as “inactive”. With O=C(CCc1nnc(-c2ccc(-c3ccccc3)cc2)o1)N1CCCCC1 the Potency was “inactive”. In the case of Cc1ccc(CN2C(=O)c3ccccc3Sc3ccc(C(=O)NC4CCCC4)cc32)cc1, the Potency is reported as inconclusive: 0.112 µM [inhibitor, full curve, poor fit]. With CCNC(=O)c1c2c(nc3ccccc13)C(=O)N(C1CCCCC1)C2 the Potency was inconclusive: 6.31 µM [inhibitor, single point]. For O=C(CSc1ccc(Cl)cc1)N1N=CCC1c1ccccc1 (stereo not drawn), the Potency was “inactive”. With O=C(Cn1c(SCc2ccccc2F)nc2cccnc21)Nc1ccc(F)c(Cl)c1 the Potency was inconclusive: 35.5 µM [inhibitor, partial curve, poor fit]. For CC(=O)c1cccc(NC(=S)NCCC2=CCCCC2)c1, the Potency was inconclusive: 12.6 µM [inhibitor, single point]. With Cn1c(/C(C#N)=C(\O)c2ccc(S(=O)(=O)N3CCCCC3)cc2)nc2ccccc21 the Potency was “inactive”. In the case of CC(C)N(C(=O)[C@H]1C[C@H](CC(=O)NCCC2=CCCCC2)C(=O)N2CCc3c([nH]c4ccc(Cl)cc34)[C@]12C)C(C)C, the Potency is reported as inconclusive: 22.4 µM [inhibitor, single point]. In the case of COc1ccc(S(=O)(=O)N2CCC(C(=O)N3CCc4ccccc4C3)CC2)cc1Cl, the Potency is reported as inconclusive: 11.2 µM [inhibitor, partial curve]. For CC(=O)Nc1ccc(S(=O)(=O)N2CCN(c3cc(C)nc4ccccc34)CC2)cc1, the Potency was “inactive”. In the case of Cc1c(/C=N\NC(=O)c2cc3ccccc3o2)c2ccccc2n1C, the Potency is reported as inconclusive: 17.8 µM [inhibitor, single point]. For CCCCNc1sc(S(=O)(=O)CCC)nc1S(=O)(=O)c1ccc(C)cc1, the Potency was inconclusive: 35.5 µM [inhibitor, single point]. For COc1ccc(Cl)cc1C1CC(=O)Nc2cc3c(cc21)OCCO3 (stereo not drawn), the Potency was inconclusive: 2.51 µM [inhibitor, full curve]. In the case of O=C(c1cnc(N2CCCCC2)c2ccccc12)N1CCN(c2cccc(Cl)c2)CC1, the Potency is reported as inconclusive: 35.5 µM [inhibitor, single point]. For Cc1cc(C)cc(NC(=O)CCCn2c(=O)c3cccn3c3ccccc32)c1, the Potency was active: 11.2 µM. For O=C(NCc1cccs1)c1ccc(S(=O)(=O)N2CCCCC2)cc1, the Potency was inconclusive: 0.398 µM [inhibitor, partial curve, poor fit]. For CCNc1ccc(C(=O)OCC(=O)N2CCCC2)cc1[N+](=O)[O-], the Potency was “inactive”. In the case of O=C(Nc1ccc(OC(F)(F)F)cc1)C1CCCCN1S(=O)(=O)c1ccccc1 (stereo not drawn), the Potency is reported as inconclusive: 0.631 µM [inhibitor, full curve, poor fit]. For O=C1C(c2c(O)[nH]c3ccccc23)=Nc2ccccc21, the Potency was “inactive”. With CC(C)(C)n1nnnc1C(c1cccs1)N(Cc1ccccc1)Cc1ccco1 (stereo not drawn) the Potency was inconclusive: 10 µM [inhibitor, partial curve]. For CC(=O)c1ccc(NC(=O)C2CCCN2S(=O)(=O)c2ccc(C)cc2)cc1 (stereo not drawn), the Potency was “inactive”. In the case of COc1ccc(C(CNC(=O)C(CCSC)NC(=O)c2ccccc2Cl)N2CCOCC2)cc1 (stereo not drawn), the Potency is reported as inconclusive: 17.8 µM [inhibitor, single point]. In the case of COc1ccc(-n2c(=O)c(CCC(=O)N(C)Cc3cccs3)nc3ccccc32)cc1, the Potency is reported as inconclusive: 35.5 µM [inhibitor, single point]. For COc1ccc(-c2nc3ccccc3s2)cc1NC(=O)COc1cccc(C)c1, the Potency was “inactive”. For CCOC(=O)C1=C(C)NC(C)=C(C(=O)OCC)C1C(=O)OCC(=O)NCCc1ccccc1, the Potency was “inactive”. With CN1C(=O)C(CC(=O)Nc2ccc(F)cc2)N(Cc2ccco2)C1=S (stereo not drawn) the Potency was “inactive”. In the case of CC(C)=CCc1cc([C@@H]2COc3c(ccc4c3C=CC(C)(C)O4)C2)c(O)cc1O, the Potency is reported as active: 14.1 µM. With CCCCC1=CC2=CC(=O)C(C)(OC(=O)CC)C(=O)C2=CN1c1ccc(OC)cc1 (stereo not drawn) the Potency was inconclusive: 22.4 µM [inhibitor, single point]. In the case of CSc1ccc(/C=C/c2cc(=O)c3ccccc3[nH]2)cc1, the Potency is reported as inconclusive: 35.5 µM [inhibitor, single point]. For NNC(=O)c1sc2nc(N3CCOCC3)c3c(c2c1N)CCCC3, the Potency was inconclusive: 7.94 µM [inhibitor, partial curve]. In the case of COc1ccc(OC)c(-n2c(=O)c3ccccc3c3ccccc3c2=O)c1, the Potency is reported as inconclusive: 20 µM [inhibitor, single point]. For CCN(CCCNC(=O)c1cc(Nc2ccc(OC)cc2OC)nc2ccccc12)c1cccc(C)c1, the Potency was inconclusive: 7.94 µM [inhibitor, partial curve]. In the case of COC(=O)c1[nH]c2cccc(OC)c2c1NC(=O)CN1CC2(C)CC1CC(C)(C)C2 (stereo not drawn), the Potency is reported as inconclusive: 0.891 µM [inhibitor, full curve, poor fit]. For Cc1ccc(-n2ncc3c(N(CC(C)C)CC(C)C)ncnc32)c(C)c1, the Potency was “inactive”. For N=C1C(c2nc(-c3ccc(Br)cc3)cs2)=C(O)CN1NC(=O)c1ccc([N+](=O)[O-])cc1, the Potency was inconclusive: 2.51 µM [inhibitor, partial curve]. In the case of C=C(C)C(=O)Nc1cccc(C2=NOC3(C2)C[C@@H](C(N)=O)N(C(=O)CC(c2ccccc2)c2ccccc2)C3)c1 (stereo partly drawn), the Potency is reported as “inactive”. With CCOc1ccc(N=C2NC(=O)CS2)cc1 the Potency was “inactive”. In the case of CCCCCN(C(=O)NC(=O)NC(C)CC)S(C)(=O)=O (stereo not drawn), the Potency is reported as inconclusive: 0.794 µM [inhibitor, full curve]. For CCOc1cc2sc(N3CCC(C(=O)NCCCN4CCCC4=O)CC3)nc2cc1Br, the Potency was inconclusive: 14.1 µM [inhibitor, partial curve]. For Cc1ccc(NC(=O)c2c(C)oc3ccc(O)c(CN4CCCCCC4)c23)cc1, the Potency was inconclusive: 35.5 µM [inhibitor, single point]. For CC(C)S(=O)(=O)c1oc(-c2cccs2)nc1S(=O)(=O)c1ccc(F)cc1, the Potency was active: 2.51 µM. In the case of CCOC(=O)c1c(NC(=O)CSc2nc3ccccc3s2)sc(C(C)=O)c1C, the Potency is reported as inconclusive: 2.82 µM [inhibitor, full curve, poor fit]. In the case of Nc1ncnc2c1ncn2CCOc1ccccc1, the Potency is reported as inconclusive: 1.41 µM [inhibitor, full curve, poor fit]. For CC1(C(=O)NS(=O)(=O)Cc2ccccc2C(F)(F)F)CCN1C(=O)c1cccc(F)c1 (stereo not drawn), the Potency was “inactive”. In the case of CCOC(=O)CN1C(c2ccccc2O)Nc2ccc(Br)cc2C1c1ccccc1 (stereo not drawn), the Potency is reported as inconclusive: 14.1 µM [inhibitor, single point]. For CNC[C@@H]1Oc2ccc(NS(=O)(=O)c3ccc(Cl)cc3)cc2C(=O)N([C@H](C)CO)C[C@@H]1C, the Potency was inconclusive: 0.0891 µM [inhibitor, full curve, poor fit]. In the case of CN1OC[C@@H]2CN(S(=O)(=O)c3ccccc3)[C@H](c3ccccc3Br)C[C@@H]21, the Potency is reported as “inactive”. For O=C(CN1C(=O)/C(=C/c2cccc(Br)c2)SC1=S)Nc1cccnc1, the Potency was inconclusive: 12.6 µM [inhibitor, single point]. For CN(C)CCOc1ccc2c(c1)C(=O)C(=Cc1ncc([N+](=O)[O-])n1C)C2, the Potency was active: 1.41 µM. For CN(C)/C=C1/C=C(c2ccccc2)OC1=O, the Potency was “inactive”. For COc1ccc(S(=O)(=O)NCc2cc(=O)n(C)c(=O)n2C)cc1C, the Potency was “inactive”. In the case of O=C1/C(=C/c2ccc([N+](=O)[O-])cc2)Oc2cc(O)ccc21, the Potency is reported as inconclusive: 35.5 µM [inhibitor, single point]. For O=C(Nc1ccc(Cl)c(S(=O)(=O)N2CCOCC2)c1)c1ccc(Cl)nc1, the Potency was “inactive”. With Cc1cccc(N=C2NC(=O)/C(=C/C=C/c3ccco3)S2)c1C the Potency was inconclusive: 2.82 µM [inhibitor, partial curve, poor fit]. For CCN(CC)CCn1c(-c2ccccc2)csc1=Nc1ccccc1, the Potency was active: 12.6 µM. With COc1ccc2[nH]c(C)c(CCN(Cc3cccs3)C(=S)Nc3cccc(F)c3)c2c1 the Potency was inconclusive: 20 µM [inhibitor, single point]. With CCOC(=O)N1CCN(c2c(NCc3ccc(F)cc3)c(=O)c2=O)CC1 the Potency was inconclusive: 7.94 µM [inhibitor, partial curve, poor fit]. In the case of COc1cc(/C=N/NC(=S)NCCc2ccccc2)cc(OC)c1OC, the Potency is reported as inconclusive: 15.8 µM [inhibitor, single point]. For O=C(CSc1nc2c([nH]c3ccccc32)c(=O)n1-c1ccccc1)N1CCOCC1, the Potency was inconclusive: 0.631 µM [inhibitor, full curve, poor fit]. With CC(C)OC(=O)c1c(NC(=O)COc2cccc(Br)c2)sc2c1CCCC2 the Potency was “inactive”. In the case of CS(=O)(=O)Nc1cccc(C2=NN(C(=O)c3cccc([N+](=O)[O-])c3)C(c3cccs3)C2)c1 (stereo not drawn), the Potency is reported as “inactive”.
